# Experimental data from patent EP0745599A2, “1-(3-Heterocyclylphenyl)-s-triazine-2,4,6-oxo or thiotrione herbicidal agents” (American Cyanamid Company, priority 1995, dated 1996).
# At least one read-out could not be matched to a standard name with certainty.
# How the values were obtained:
# Format in all cases: in vivo
# Details in all cases: rated four to five weeks after treatment
# [1] = test system: TRITICUM AESTIVUM, CV. APOLLO; assay: Postemergence herbicidal evaluation, TRZAWO (Wheat, Winter, CV. APOLLO)
# How it was run: (§1)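 Two-week-old seedlings; spray 40 psi, 0.125–0.500 kg/ha in 50/50 acetone/water, 0.5% TWEEN®20. Greenhouse hold 4–5 wk. Visual 0–9 score (stand, vigor, malformation, size, chlorosis, appearance) vs control; repeats averaged.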
# [2] = test system: ABUTILON THEOPHRASTI, MEDIC.; assay: Preemergence herbicidal evaluation, ABUTH (Velvetleaf)
# Text: (§2) Results of herbicide evaluation are expressed on a rating scale (0-9). The scale is based upon a visual observation of plant stand, vigor, malformation, size, chlorosis and overall plant appearance as compared with a control.
# (§3) The preemergence herbicidal activity of the test compounds of the present invention is exemplified by the following tests in which the seeds of a variety of monocotyledonous and dicotyledonous plants are separately mixed with potting soil and planted on top of approximately one inch of soil in separate pint cups. After planting, the cups are sprayed with the selected aqueous acetone solution containing test compound in sufficient quantity to provide the equivalent of about 0.125 to 0.50 kg per hectare of test compound per cup. The treated cups are then placed on greenhouse benches, watered and cared for in accordance with conventional greenhouse procedures. From four to five weeks after treatment, the tests are terminated and each cup is examined and rated according to the rating system provided in Example 42.
# [3] = test system: SETARIA VIRIDIS, (L) BEAU; assay: Postemergence herbicidal evaluation, SETVI (Foxtail, Green)
# How it was run: as §1
# GALIUM APARINE [4] = assay: Preemergence herbicidal evaluation, GALAP (Galium)
# Text: as §2, §3
# GALIUM APARINE [5] = assay: Postemergence herbicidal evaluation, GALAP (Galium)
# [6] = test system: SETARIA VIRIDIS, (L) BEAU; assay: Preemergence herbicidal evaluation, SETVI (Foxtail, Green)
# Text: as §2, §3
# [7] = test system: AMBROSIA ARTEMISIIFOLIA, L.; assay: Preemergence herbicidal evaluation, AMBEL (Ragweed, Common)
# Text: as §2, §3
# [8] = test system: ECHINOCHLOA CRUS-GALLI, (L) BEAU; assay: Postemergence herbicidal evaluation, ECHCG (Barnyardgrass)
# How it was run: as §1
# [9] = test system: GLYCINE MAX(L)MERR. CV. WILLIAMS; assay: Postemergence herbicidal evaluation, GLXMAW (Soybean, Williams)
# How it was run: as §1
# IPOMOEA SPP. = assay: Postemergence herbicidal evaluation, IPOSS (Morningglory Spp.)
# ZEA MAYS L. [10] = assay: Preemergence herbicidal evaluation, ZEAMX (Corn, Field)
# Text: as §2, §3
# [11] = test system: GLYCINE MAX(L)MERR. CV. WILLIAMS; assay: Preemergence herbicidal evaluation, GLXMAW (Soybean, Williams)
# Text: as §2, §3
# [12] = test system: ORYZA SATIVA, L. TEBONNET; assay: Postemergence herbicidal evaluation, ORYSAT (Rice, Tebonnet)
# How it was run: as §1
# [13] = test system: AMBROSIA ARTEMISIIFOLIA, L.; assay: Postemergence herbicidal evaluation, AMBEL (Ragweed, Common)
# How it was run: as §1
# [14] = test system: ABUTILON THEOPHRASTI, MEDIC.; assay: Postemergence herbicidal evaluation, ABUTH (Velvetleaf)
# How it was run: as §1
# CHENOPODIUM ALBUM, L. [15] = assay: Postemergence herbicidal evaluation, CHEAL (Lambsquarters, Common)
# How it was run: as §1
# ZEA MAYS L. [16] = assay: Postemergence herbicidal evaluation, ZEAMX (Corn, Field)
# How it was run: as §1
# CASSIA OBTUSIFOLIA, L. [17] = assay: Postemergence herbicidal evaluation, CASOB (Sicklepod)
# How it was run: as §1
# CASSIA OBTUSIFOLIA, L. [18] = assay: Preemergence herbicidal evaluation, CASOB (Sicklepod)
# Text: as §2, §3
# CHENOPODIUM ALBUM, L. [19] = assay: Preemergence herbicidal evaluation, CHEAL (Lambsquarters, Common)
# Text: as §2, §3
compound,measurement,setting,value
"COC(=O)Cn1c(=O)n(C)c(=O)n(-c2cc(N3C(=O)C4=C(CCCC4)C3=O)c(Cl)cc2Cl)c1=O [Compound 6, Methyl 3-[2,4-dichloro-5-(1-cyclohexene-1,2-dicarboximido)phenyl]tetrahydro-5-methyl-2,4,6-trioxo-s-triazine-1(2H)-acetate]",Herbicide rating (0-9) TRZAWO,[1]; 0.125 kg/ha,2.5
same,Herbicide rating (0-9) TRZAWO,[1]; 0.250 kg/ha,3.3
same,Herbicide rating (0-9) TRZAWO,[1]; 0.500 kg/ha,3.5
same,Herbicide rating (0-9) ABUTH,[2]; 0.125 kg/ha,3.0
same,Herbicide rating (0-9) ABUTH,[2]; 0.250 kg/ha,4.0
same,Herbicide rating (0-9) ABUTH,[2]; 0.500 kg/ha,4.0
same,Herbicide rating (0-9) SETVI,[3]; 0.125 kg/ha,0.0
same,Herbicide rating (0-9) SETVI,[3]; 0.250 kg/ha,1.0
same,Herbicide rating (0-9) SETVI,[3]; 0.500 kg/ha,2.0
same,Herbicide rating (0-9) GALAP,GALIUM APARINE [4]; 0.250 kg/ha,3.0
same,Herbicide rating (0-9) GALAP,GALIUM APARINE [4]; 0.500 kg/ha,9.0
same,Herbicide rating (0-9) GALAP,GALIUM APARINE [5]; 0.125 kg/ha,3.0
same,Herbicide rating (0-9) GALAP,GALIUM APARINE [5]; 0.250 kg/ha,4.0
same,Herbicide rating (0-9) GALAP,GALIUM APARINE [5]; 0.500 kg/ha,4.5
same,Herbicide rating (0-9) SETVI,[6]; 0.125 kg/ha,0.0
same,Herbicide rating (0-9) SETVI,[6]; 0.250 kg/ha,0.0
same,Herbicide rating (0-9) SETVI,[6]; 0.500 kg/ha,2.0
same,Herbicide rating (0-9) AMBEL,[7]; 0.125 kg/ha,2.0
same,Herbicide rating (0-9) AMBEL,[7]; 0.250 kg/ha,3.0
same,Herbicide rating (0-9) AMBEL,[7]; 0.500 kg/ha,3.0
same,Herbicide rating (0-9) ECHCG,[8]; 0.125 kg/ha,0.0
same,Herbicide rating (0-9) ECHCG,[8]; 0.250 kg/ha,1.0
same,Herbicide rating (0-9) ECHCG,[8]; 0.500 kg/ha,1.0
same,Herbicide rating (0-9) GLXMAW,[9]; 0.125 kg/ha,4.0
same,Herbicide rating (0-9) GLXMAW,[9]; 0.250 kg/ha,4.3
same,Herbicide rating (0-9) GLXMAW,[9]; 0.500 kg/ha,5.0
same,Herbicide rating (0-9) IPOSS,IPOMOEA SPP.; 0.125 kg/ha,5.5
same,Herbicide rating (0-9) IPOSS,IPOMOEA SPP.; 0.250 kg/ha,6.0
same,Herbicide rating (0-9) IPOSS,IPOMOEA SPP.; 0.500 kg/ha,7.0
same,Herbicide rating (0-9) ZEAMX,ZEA MAYS L. [10]; 0.125 kg/ha,1.0
same,Herbicide rating (0-9) ZEAMX,ZEA MAYS L. [10]; 0.250 kg/ha,0.0
same,Herbicide rating (0-9) ZEAMX,ZEA MAYS L. [10]; 0.500 kg/ha,1.0
same,Herbicide rating (0-9) GLXMAW,[11]; 0.125 kg/ha,0.0
same,Herbicide rating (0-9) GLXMAW,[11]; 0.250 kg/ha,1.0
same,Herbicide rating (0-9) GLXMAW,[11]; 0.500 kg/ha,1.0
same,Herbicide rating (0-9) ORYSAT,[12]; 0.125 kg/ha,2.0
same,Herbicide rating (0-9) ORYSAT,[12]; 0.250 kg/ha,2.8
same,Herbicide rating (0-9) ORYSAT,[12]; 0.500 kg/ha,2.8
same,Herbicide rating (0-9) AMBEL,[13]; 0.125 kg/ha,3.5
same,Herbicide rating (0-9) AMBEL,[13]; 0.250 kg/ha,4.5
same,Herbicide rating (0-9) AMBEL,[13]; 0.500 kg/ha,5.0
same,Herbicide rating (0-9) ABUTH,[14]; 0.125 kg/ha,6.0
same,Herbicide rating (0-9) ABUTH,[14]; 0.250 kg/ha,6.5
same,Herbicide rating (0-9) ABUTH,[14]; 0.500 kg/ha,8.0
same,Herbicide rating (0-9) CHEAL,"CHENOPODIUM ALBUM, L. [15]; 0.125 kg/ha",5.5
same,Herbicide rating (0-9) CHEAL,"CHENOPODIUM ALBUM, L. [15]; 0.250 kg/ha",8.0
same,Herbicide rating (0-9) CHEAL,"CHENOPODIUM ALBUM, L. [15]; 0.500 kg/ha",7.5
same,Herbicide rating (0-9) ZEAMX,ZEA MAYS L. [16]; 0.125 kg/ha,3.0
same,Herbicide rating (0-9) ZEAMX,ZEA MAYS L. [16]; 0.250 kg/ha,3.8
same,Herbicide rating (0-9) ZEAMX,ZEA MAYS L. [16]; 0.500 kg/ha,3.8
same,Herbicide rating (0-9) CASOB,"CASSIA OBTUSIFOLIA, L. [17]; 0.125 kg/ha",3.0
same,Herbicide rating (0-9) CASOB,"CASSIA OBTUSIFOLIA, L. [17]; 0.250 kg/ha",4.5
same,Herbicide rating (0-9) CASOB,"CASSIA OBTUSIFOLIA, L. [17]; 0.500 kg/ha",4.5
same,Herbicide rating (0-9) CASOB,"CASSIA OBTUSIFOLIA, L. [18]; 0.125 kg/ha",2.0
same,Herbicide rating (0-9) CASOB,"CASSIA OBTUSIFOLIA, L. [18]; 0.250 kg/ha",3.0
same,Herbicide rating (0-9) CASOB,"CASSIA OBTUSIFOLIA, L. [18]; 0.500 kg/ha",5.0
same,Herbicide rating (0-9) CHEAL,"CHENOPODIUM ALBUM, L. [19]; 0.125 kg/ha",6.0
same,Herbicide rating (0-9) CHEAL,"CHENOPODIUM ALBUM, L. [19]; 0.250 kg/ha",9.0
same,Herbicide rating (0-9) CHEAL,"CHENOPODIUM ALBUM, L. [19]; 0.500 kg/ha",9.0
